{"source": "the supplement of paper PMC10670038", "note": "Counter-ions that a name gives are not always drawn. ± gives the standard deviation of the averaged measurements. The full ranking holds about 2,000 compounds; the median of “relative cell viability vs DMSO, compound alone” is about 1.1, and the lowest 2% start at about 0.29. The list shows a part of the results."}
{"test_system": "TE10", "test": "relative cell viability vs DMSO, compound alone (fraction); TE10 is an esophageal squamous carcinoma line; higher = less cytotoxic", "conditions": "2 µM; 48 h", "description": "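TE10 ESCC cells (1,000/well, 384-well plates) were treated with Selleck bioactive library compounds at 2 uM alone for 48 h. Viability was read by CellTiter-Glo and expressed relative to DMSO wells. Two technical replicates (A, B).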"}
{"smiles": "CC1=C(C(=O)OC(C)C)C(c2cccc([N+](=O)[O-])c2)C(C(=O)OC2CN(C(c3ccccc3)c3ccccc3)C2)=C(N)N1", "note": "(stereo not given) [Azelnidipine]", "relative cell viability": "1.06 ± 0.012"}
{"smiles": "Cc1cc(C2CCCCC2)n(O)c(=O)c1", "note": "[Ciclopirox]", "relative cell viability": "0.775 ± 0.0096"}
{"smiles": "Cc1cc(C2CCCCC2)n(O)c(=O)c1", "note": "[Ciclopirox ethanolamine]", "relative cell viability": "0.785 ± 0.02"}
{"smiles": "CCc1cncnc1N1CCN(Cc2nc3ccc(C(F)(F)F)cc3[nH]2)CC1", "relative cell viability": "1.01 ± 0.013"}
{"smiles": "O=C(O)c1cc(=O)c2ccccc2o1", "note": "[Chromocarb]", "relative cell viability": "1.01 ± 0.033"}
{"smiles": "CCOc1cc([C@@H](CS(C)(=O)=O)N2C(=O)c3cccc(NC(C)=O)c3C2=O)ccc1OC", "relative cell viability": "0.887 ± 0.18"}
{"smiles": "CCOC(=O)[C@H](CCc1ccccc1)N[C@@H](C)C(=O)N1[C@H](C(=O)O)C[C@@H]2CCC[C@@H]21", "note": "[Ramipril]", "relative cell viability": "1.02 ± 0.071"}
{"smiles": "NC(=O)c1ncn([C@@H]2O[C@H](CO)[C@@H](O)[C@H]2O)n1", "note": "[Ribavirin]", "relative cell viability": "1.165 ± 0.011"}
{"smiles": "Cc1ccc(S(=O)(=O)n2c(N)nc3ccccc32)cc1", "note": "[ML130 (Nodinitib-1)]", "relative cell viability": "0.949 ± 0.053"}
{"smiles": "NCC(=O)Nc1ccc(-n2nc(C(F)(F)F)cc2-c2ccc3c(ccc4ccccc43)c2)cc1", "relative cell viability": "0.844 ± 0.057"}
{"smiles": "COc1ccc(-c2nc3cc(C4=NNC(=O)CC4C)ccc3[nH]2)cc1", "note": "(stereo not given) [Pimobendan]", "relative cell viability": "0.876 ± 0.019"}
{"smiles": "O=c1c(O)c(-c2ccc(O)c(O)c2)oc2cc(O)ccc12", "note": "[Fisetin]", "relative cell viability": "1 ± 0.033"}
{"smiles": "COc1cc2ncnc(Oc3cccc(NC(=O)Nc4cc(C(C)(C)C(F)(F)F)on4)c3)c2cc1OC", "relative cell viability": "1.07 ± 0.013"}
{"smiles": "COc1ccc(-c2cnc3c(-c4cccc5ncccc45)cnn3c2)cc1", "relative cell viability": "1.171 ± 0.0012"}
{"smiles": "NS(=O)(=O)c1cc2c(cc1Cl)N=CNS2(=O)=O", "note": "[Chlorothiazide]", "relative cell viability": "1.01 ± 0.015"}
{"smiles": "CC[C@H]1OC(=O)[C@H](C)[C@@H](O[C@H]2C[C@@](C)(OC)[C@@H](O)[C@H](C)O2)[C@H](C)[C@@H](O[C@@H]2O[C@H](C)C[C@H](N(C)C)[C@H]2O)[C@](C)(OC)C[C@@H](C)C(=O)[C@H](C)[C@@H](O)[C@]1(C)O", "note": "[Clarithromycin]", "relative cell viability": "1.06 ± 0.047"}
{"smiles": "O=[N+]([O-])c1ccc2c(c1)S(=O)(=O)C=C2", "note": "[Stattic]", "relative cell viability": "0.43 ± 0.0062"}
{"smiles": "CCCCCCCCC/C(=C\\C1=C(C)C(=O)C(OC)=C(OC)C1=O)C(=O)O", "relative cell viability": "1.06 ± 0.033"}
{"smiles": "CN(C)CC[C@H](CSc1ccccc1)Nc1ccc(S(=O)(=O)NC(=O)c2ccc(N3CCN(Cc4ccccc4-c4ccc(Cl)cc4)CC3)cc2)cc1[N+](=O)[O-]", "relative cell viability": "0.73 ± 0.026"}
{"smiles": "C[C@H]1COC2=C1C(=O)C(=O)c1c2ccc2c1CCCC2(C)C", "note": "[Cryptotanshinone]", "relative cell viability": "0.747 ± 0.008"}
{"smiles": "NC(=O)Cc1cccc(C(=O)c2ccccc2)c1N", "note": "[Nepafenac]", "relative cell viability": "1.2255 ± 0.00018"}
{"smiles": "CC(C)C[C@@H]1NC(=O)[C@@H](C(C)C)NC(=O)[C@@H]2CCCN2C(=O)[C@@H](CC(=O)O)NC(=O)[C@@H](Cc2c[nH]c3ccccc23)NC1=O", "relative cell viability": "1.093 ± 0.0096"}
{"smiles": "CN(C)C(=O)COC(=O)Cc1ccc(OC(=O)c2ccc(NC(=N)N)cc2)cc1", "note": "[Camostat Mesilate]", "relative cell viability": "1.05 ± 0.023"}
{"smiles": "N=C(N)NC(=O)c1nc(Cl)c(N)nc1N", "note": "[Amiloride HCl]", "relative cell viability": "1.05 ± 0.021"}
{"smiles": "N=C(N)NC(=O)c1nc(Cl)c(N)nc1N", "note": "[Amiloride hydrochloride dihydrate]", "relative cell viability": "1.15 ± 0.064"}
{"smiles": "Nc1ccccc1NC(=O)c1ccc(CNC(=O)OCc2cccnc2)cc1", "note": "[Entinostat (MS-275)]", "relative cell viability": "0.71 ± 0.038"}
{"smiles": "CCCCOc1c(C(=O)c2c(F)cc(C)cc2F)c[nH]c2nncc1-2", "relative cell viability": "0.904 ± 0.014"}
{"smiles": "CCC(=O)Nc1cccc(Oc2nc(Nc3ccc(N4CCN(C)CC4)cc3OC)ncc2Cl)c1", "relative cell viability": "1.16 ± 0.059"}
{"smiles": "N#Cc1c(NC(=O)c2cccc3ccccc23)sc2c1CCCC2", "note": "[JNK Inhibitor IX]", "relative cell viability": "1 ± 0.006"}
{"smiles": "C=CC(=O)Nc1cccc(Nc2nc(Nc3ccc(OCCOC)cc3)ncc2F)c1", "relative cell viability": "0.919 ± 0.031"}
{"smiles": "CCc1c(Cl)c(O)c(Cl)c(O)c1C(=O)O[C@H]1[C@H](O)[C@H](OC)[C@H](OC/C2=C\\C=C\\C[C@H](O)/C(C)=C/[C@H](CC)[C@@H](O[C@@H]3OC(C)(C)[C@@H](OC(=O)C(C)C)[C@H](O)[C@@H]3O)/C(C)=C/C(C)=C/C[C@@H]([C@@H](C)O)OC2=O)O[C@@H]1C", "note": "[Fidaxomicin]", "relative cell viability": "1.05 ± 0.029"}
{"smiles": "Nc1ccn([C@@H]2CS[C@H](CO)O2)c(=O)n1", "note": "[Lamivudine]", "relative cell viability": "0.944 ± 0.053"}
{"smiles": "O=C1NCCCc2c1oc1ccc(O)cc21", "relative cell viability": "1.01 ± 0.085"}
{"smiles": "COc1ccccc1OCC(O)COC(N)=O", "note": "(stereo not given) [Methocarbamol]", "relative cell viability": "1.11 ± 0.02"}
{"smiles": "COC(=O)Nc1nc2cc([S+]([O-])c3ccccc3)ccc2[nH]1", "note": "(stereo not given) [Oxfendazole]", "relative cell viability": "0.913 ± 0.023"}
{"smiles": "OC[C@@H](O)[C@@H](O)[C@@H](O)CO", "note": "[Ribitol]", "relative cell viability": "1.126 ± 0.0056"}
{"smiles": "O=C(Nc1ccccc1)Nc1ccc(-c2ccc(C(=O)[C@@H]3CCC[C@H]3C(=O)O)cc2)cc1", "relative cell viability": "0.994 ± 0.026"}
{"smiles": "CN(C)C/C=C/C(=O)Nc1cc2c(Nc3ccc(F)c(Cl)c3)ncnc2cc1O[C@H]1CCOC1", "note": "[Afatinib (BIBW2992) Dimaleate]", "relative cell viability": "0.976 ± 0.014"}
{"smiles": "CN(C)C/C=C/C(=O)Nc1cc2c(Nc3ccc(F)c(Cl)c3)ncnc2cc1O[C@H]1CCOC1", "note": "[Afatinib (BIBW2992)]", "relative cell viability": "0.915 ± 0.048"}
{"smiles": "O=C1NC(=O)C(c2ccccc2)(c2ccccc2)N1", "note": "[Phenytoin]", "relative cell viability": "1 ± 0.037"}
